Whole data set: some 110,000 compounds, median “z-score” near -0.1, cut for the highest 2% near 2. This is one part of the list. The source made the active and inactive calls.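 The calls were made as follows: active = z-score in the third read window above 3 or below -3; inactive = the rest.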

Here are results for 112 compounds from PubChem BioAssay AID488969 (Vanderbilt High Throughput Screening Facility, 2010).

The experiment deals with Metabotropic glutamate receptor 8 (Rattus norvegicus) (UniProt P70579). Description: rat mGluR8 modulators via GIRK flux, primary screen, cell-based, thallium flux, HTS (AID 488969). Conditions: HEK293 rat mGluR8, GIRK (G protein-gated inwardly rectifying potassium channel) thallium flux, FluoZin2; at 10 µM; stronger effect = higher value; submaximal glutamate (EC20) added with thallium.
Sequence of UniProt P70579 (P70579 whole entry, looked up): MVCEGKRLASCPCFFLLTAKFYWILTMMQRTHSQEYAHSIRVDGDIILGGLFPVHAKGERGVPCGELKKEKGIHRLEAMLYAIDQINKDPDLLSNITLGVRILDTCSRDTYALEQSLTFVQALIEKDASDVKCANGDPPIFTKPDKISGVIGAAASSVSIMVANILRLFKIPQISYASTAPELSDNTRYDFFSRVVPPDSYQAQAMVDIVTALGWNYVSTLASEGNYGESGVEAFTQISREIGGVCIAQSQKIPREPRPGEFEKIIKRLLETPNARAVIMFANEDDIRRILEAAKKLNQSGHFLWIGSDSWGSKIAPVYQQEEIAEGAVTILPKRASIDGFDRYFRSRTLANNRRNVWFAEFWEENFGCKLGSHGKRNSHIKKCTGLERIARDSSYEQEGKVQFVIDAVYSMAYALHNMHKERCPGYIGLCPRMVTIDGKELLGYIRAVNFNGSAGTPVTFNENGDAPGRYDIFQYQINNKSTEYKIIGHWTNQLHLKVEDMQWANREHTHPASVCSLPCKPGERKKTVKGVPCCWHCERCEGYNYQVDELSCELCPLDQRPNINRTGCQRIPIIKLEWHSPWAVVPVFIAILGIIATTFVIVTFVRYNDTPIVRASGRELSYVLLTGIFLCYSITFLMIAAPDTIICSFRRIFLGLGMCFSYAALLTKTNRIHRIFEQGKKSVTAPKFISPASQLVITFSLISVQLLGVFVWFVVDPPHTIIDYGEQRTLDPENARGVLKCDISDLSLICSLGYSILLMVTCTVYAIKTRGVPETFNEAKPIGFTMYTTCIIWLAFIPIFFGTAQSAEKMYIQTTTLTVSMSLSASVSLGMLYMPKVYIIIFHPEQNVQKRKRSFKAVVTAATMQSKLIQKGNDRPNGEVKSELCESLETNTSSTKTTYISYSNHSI
Take `COc1ccc(NS(=O)(=O)CC23CCC(CC2=O)C3(C)C)cc1` (configuration not stated): the z-score worked out at 0.124. Then `CCc1ccc2nc(-c3cccc(C)c3)nc(SCC(=O)NCC3CCCO3)c2c1` (configuration not stated), with -0.227. For `CC12CCC(C(=O)N3CCCCC3)(CC1=O)C2(C)C` (configuration not stated), the z-score is -0.115.

Take `CC(=O)Nc1nc2nc(-c3ccccc3)cc(-c3ccccc3)n2n1`: the z-score was 0.0168.

Consider `COc1ccccc1N1CSC2=C(C#N)C(c3ccc(SC)cc3)CC(=O)N2C1` (configuration not stated), for which the z-score amounted to 0.814. As for `CCCCn1c(=S)[nH]c2cc(S(=O)(=O)N3CCCCC3)ccc21`, the z-score was found to be 0.106. As to `COc1ccccc1N(C)S(=O)(=O)c1ccc(C(=O)N(CC(N)=O)C(C)C)cc1`, the z-score is active: -3.55. Turning to `Cn1nnnc1SCc1nnc(-c2ccccc2Br)o1`, the z-score came to 0.436.

The compound `C/C(O)=C(\C#N)c1nnc2n1CCCCC2` had a z-score of -0.373. As to `Cc1c(F)cccc1NC(=O)CSCC(=O)Nc1ccccc1`, the z-score came to 0.0382. On to `CCOC(=O)c1[nH]c(C)c(C(=O)NC(C)(C)C)c1C`, for which the z-score was -0.132. Then `Cc1csc(NC(=O)CSc2nnc(C)n2Cc2ccco2)n1`, with -0.295; and `CC1(C)Cc2c(c(N3CCOCC3)nc3sc(C#N)c(N)c23)CS1`, with -0.0306; and `O=C(CCc1ccccc1)Nc1ccc(F)cc1F`, with 0.0883. In turn, `Cc1ccc(-c2nnn(CC(=O)N(Cc3cccs3)C(C(=O)NC(C)(C)C)c3ccc(C)o3)n2)o1` (configuration not stated) registered a z-score of 0.441. `COc1ccc(NC(=O)c2ccco2)cc1NC(=O)c1cccnc1` gave a z-score of 0.148. `CC1=C(C(=O)OC2CCCCCCC2)C(c2ccc(O)cc2)NC(=O)N1` (configuration not stated) came in with a z-score of 0.145.

With `CCCCNC(=O)c1ccc2c(c1)ncn2C1CCCCC1`, the z-score was found to be 0.585.

In turn, `COc1ccc(C2SCCN2S(=O)(=O)c2ccc(NC(C)=O)cc2)cc1` (configuration not stated) yielded a z-score of 0.468. In turn, `Cc1ccc(S(=O)(=O)NNC(=O)C(O)(c2ccccc2)c2ccccc2)cc1` had a z-score of -0.213.

Compound `CCOc1cc(S(=O)(=O)n2cc(-c3ccc(F)cc3)c(N)n2)cc(OCC)c1OCC` returned a z-score of -0.847. In turn, `COc1ccc(-n2c(SCC(=O)NCC3CCCO3)nc3ccccc32)cc1` (configuration not stated) had a z-score of 0.294. Then `Cc1cc(NC(=O)c2cnn3cccnc23)no1`, with 0.00114. In turn, `CC1CCN(C(=O)N2c3ccccc3Sc3ccccc32)CC1` registered a z-score of -0.145.

Consider `CCCOc1ccccc1Cn1c(=O)oc2ccc(C)cc21`, for which the z-score is -0.77. `Cc1ccsc1/C=C1/SC(=O)N(CC(=O)N2CCOCC2)C1=O` registered a z-score of -0.261. `COc1ccc(C2C(C(C)=O)=C(O)C(=O)N2c2cccnc2)cc1OC` (configuration not stated): the z-score was -0.114. `CC1(C)C(=O)C2(CCCCC2)C(=O)OC1c1cccc([N+](=O)[O-])c1` (configuration not stated) returned a z-score of -0.0475. `CC(C)(C)NC(=O)NC(=O)COC(=O)CCC1CCCCC1`: the z-score was -0.148. The compound `O=C(Nc1nccs1)c1ccccc1N=Cc1ccccc1` yielded a z-score of -0.374. `CCOC(=O)c1cc(-c2ccccc2)nn1-c1ccccn1` had a z-score of -0.628. Compound `COc1cccc(C(=O)NC2CCN(CC(=O)NCc3ccccc3OC)CC2)c1` registered a z-score of -0.149.

`CCCCNCc1cc(Br)c(OCc2cccs2)c(OC)c1` had a z-score of 0.46. Compound `Cc1onc(-c2ccccc2Cl)c1C(=O)NCc1nc(-c2ccccc2)no1` gave a z-score of 0.369. To `Cc1ccc(S(=O)(=O)N(C)CC(=O)NCc2ccncc2)cc1` belongs -0.281.

The compound `Cc1cc(C(F)F)n2nc(C(=O)Nc3cccc(C(F)(F)F)c3)nc2n1` showed a z-score of 1.01. To `Cc1cc(=O)n(CC(C)O)c(O)c1C#N` (configuration not stated) belongs 0.114.

For the compound `COC(=O)NCc1ccc(CNC(=O)OC)cc1`, the z-score was determined as 0.229.

Compound `Cc1cccc(OCCn2c(S(=O)(=O)O)nc3ccccc32)c1` returned a z-score of 0.0442. For the compound `FC(F)(F)c1cccc(N2CCN(C(=S)NC3CCCC3)CC2)c1`, the z-score stood at 0.19. Compound `OC(COc1ccc2c(c1)CCC2)CN1CCN(c2ccccc2F)CC1` (configuration not stated) returned a z-score of -0.226. `CSc1nnc(C)c(/C=C/Nc2ccc(Cl)cc2)n1` returned a z-score of -0.383. Regarding `CC(C)n1nnnc1-c1cc(Cl)cc(Cl)c1`, the z-score was -0.494.

For the compound `CCCc1cc(=O)[nH]c(SCC(=O)NC)n1`, the z-score is -0.135.

`Cc1cc(S(=O)(=O)Nc2c(C)ccc3nsnc23)ccc1F`: the z-score is -0.125.

In the case of `COc1cc(NC(=O)CCCSc2nc(-c3ccco3)cc(C(F)(F)F)n2)cc(OC)c1OC`, the z-score is -0.781. Then `Cc1ccc(-n2nnnc2SCC(=O)Nc2sccc2C#N)cc1`, with -0.169; and `O=C(NC1CCCCC1)N1CCCC(c2nc3ccccc3[nH]2)C1` (configuration not stated), with -0.00279; and `Cn1nnc(NC(=O)c2ccccc2)n1`, with 0.0693. For the compound `Cc1oc(-c2ccccc2)nc1CS(=O)CC(=O)O` (configuration not stated), the z-score came out at 2.52. The compound `COCCCNC(=O)CC(NS(=O)(=O)c1ccc(Cl)cc1)c1ccco1` (configuration not stated) displayed a z-score of 0.722. Then `CCN=C1SC(CC(=O)Nc2ccc(C)cc2)C(=O)N1CC` (configuration not stated), with 0.139; and `O=C(NNc1ccccc1[N+](=O)[O-])Nc1ccc(Cl)c(Cl)c1`, with 0.929; and `CC(C)N(Cc1nc(-c2ccccc2)no1)C(=O)C1CCCCC1`, with -0.405.

`O=C(c1cc2c(s1)CCC2)N1CCN(c2ccccc2)CC1` showed a z-score of -0.0558. `CCOc1ccccc1N(CC(=O)NC1CCCC1)C(=O)CCC(=O)Nc1cc(C)on1` registered a z-score of 0.654. Regarding `Cc1ccccc1OCC(=O)NC(=S)Nc1ccc(S(=O)(=O)NC2CCCCC2)cc1`, the z-score was determined as 0.718.

As to `Cc1csc(NC(=O)CN(C)S(=O)(=O)c2cccc3cccnc23)n1`, the z-score is -0.428. `O=C(CNC(=O)c1ccccc1)NCC(=O)OCC(=O)c1ccc([N+](=O)[O-])cc1` showed a z-score of 0.155. In turn, `CN(C)C(=O)/C(=C/c1cn(-c2ccccc2)nc1-c1cccc([N+](=O)[O-])c1)NC(=O)c1ccccc1` registered a z-score of -1.44. `Cc1cc(NC(=O)c2ccc3c(c2)C(=O)N(C2CCCCC2)C3=O)no1` showed a z-score of 0.19. With `CN1c2ccccc2-c2nc3ccccc3n2C1c1ccco1` (configuration not stated), the z-score is -1.33. Then `CCOc1ccccc1NC(=O)C(OC(=O)c1cc(C)oc1C)c1ccccc1` (configuration not stated), with -1.37; and `CN1C(=O)N(C)C2(c3ccccc3)N(C)C(=O)NC12c1ccccc1` (configuration not stated), with -0.266.

With `Cc1ccc(C)n1-c1nccc(-c2cccs2)n1`, the z-score was -0.268. The compound `O=C(/C=C/c1ccc2ccccc2c1)c1ccoc1` displayed a z-score of -0.115. `O=C1CC(N2CCC(c3nc4ccccc4o3)CC2)C(=O)N1c1cc(Cl)cc(Cl)c1` (configuration not stated) registered a z-score of -0.192.

Turning to `CC(=O)c1ccc(N2CCN(C(=O)c3ccco3)C(C)C2)c(F)c1` (configuration not stated), the z-score is -0.0646. Regarding `CC(C)CC(=O)Nc1ccc2c3c(cccc13)CC2`, the z-score is -0.379.

As to `CCn1c(SCC(=O)c2cccs2)nnc1-c1cccs1`, the z-score is -0.141. To `O=C1CCCN1c1ccc(S(=O)(=O)NCCOc2ccccc2)cc1` belongs -0.0832; to `CC(=O)c1n[nH]nc1NC(=O)c1ccccc1`, -1.16; to `O=[N+]([O-])c1cccc(-c2nc(-c3cccs3)c(-c3cccs3)[nH]2)c1`, -0.4. `C=CCc1ccccc1OCC(O)CN1CCN(c2ccc(OC)cc2)CC1` (configuration not stated) returned a z-score of -0.287. `O=C(c1coc2ccc(O)cc12)C1CC1` gave a z-score of -0.173.

`COc1cc(/C=C2/C(=N)N3C=CSC3=NC2=O)ccc1OCCCOc1cc(C)ccc1C` yielded a z-score of 0.124.

As for `O=C(CSc1nnnn1-c1ccc(F)cc1)Nc1ccc(N2CCOCC2)c(Cl)c1`, the z-score amounted to 0.153. Turning to `COc1ccccc1NC(=O)Oc1ccc(NC(=O)c2ccco2)cc1`, the z-score is 0.271.

As to `O=C1CC(c2ccc(Cl)cc2)SC(N(c2ccccc2)c2ccccc2)=N1` (configuration not stated), the z-score was found to be 0.267. For `CC12CCC(C(=O)NCc3ccc4c(c3)OCO4)(CC1=O)C2(C)C` (configuration not stated), the z-score amounted to 0.354. In turn, `CS(=O)(=O)N(CCc1ccccc1)CC(=O)NCc1ccco1` yielded a z-score of 0.307. `COC(=O)C1CSC(C(=O)OC)N1C(=O)Nc1ccc(Cl)c(Cl)c1` (configuration not stated) came in with a z-score of -0.332. Turning to `O=C(Nc1nccs1)c1cc(N2CCOCC2)nc2ccccc12`, the z-score was 0.394. Regarding `O=C(Cc1ccccc1)Nc1nc(-c2cccc([N+](=O)[O-])c2)cs1`, the z-score is -0.155. `COc1ccc2[nH]cc(CCN3C(=O)CCC3=O)c2c1` came in with a z-score of -0.139. As for `O=C(NC12CC3CC(CC(C3)C1)C2)c1ccc(-c2ccccc2Cl)o1`, the z-score was -0.0589. `Cc1ccc(C(C(=O)NC2CCCC2)N(Cc2ccco2)C(=O)CCC(=O)Nc2cc(C)on2)cc1` (configuration not stated) came in with a z-score of -0.35. For `Cc1cc(C)c2cc3c(N)c(C(=O)Nc4c(C)[nH]c(=O)[nH]c4=O)sc3nc2c1`, the z-score was determined as 0.535. `COCCN(CCOC)C(=O)C12CCC(C)(C(=O)C1)C2(C)C` (configuration not stated): the z-score is -0.0902. Then `COc1cccc(N2CCN(c3ncccn3)CC2)c1`, with -0.0204; and `O=C(NCc1cccnc1)NC1(c2ccccc2)CC1`, with -0.204; and `Nc1ccc(C(=O)N/N=C/c2ccccc2)cc1`, with -0.0465.

`CCCC1S/C(=N/N=C/c2ccc(OC)cc2)N(Cc2ccccc2)C1=O` (configuration not stated) gave a z-score of -0.0593.

`CCOC(=O)c1ccc(N=C2C(=S)N(c3ccc(C(=O)OCC)cc3)C(=N)N2/N=C/c2ccccc2)cc1` had a z-score of -0.129. The compound `O=C(Cc1ccccc1)Nc1c(C(=O)N2CCCCCC2)cnn1-c1ccccc1` yielded a z-score of -0.477. Take `COc1ccc(OC(C)C(=O)N2CCOCC2)cc1` (configuration not stated): the z-score is -0.0426. Turning to `Cc1nn(Cc2ccccc2Cl)c(Cl)c1C(=O)NCCc1ccccc1`, the z-score was -0.233. Compound `O=C(COC(=O)c1cc(Cl)nc2ccccc12)c1ccc(Cl)cc1` yielded a z-score of -0.0843.

The compound `CC(C)=CCc1c(O)ccc(C(=O)Cc2ccccc2)c1O` returned a z-score of -0.128. Compound `CCOc1ccc(C(=O)N2CCN(C(=O)c3ccco3)CC2)cc1OCC` displayed a z-score of -0.298. `COCCn1c(-c2ccccc2)cnc1N` returned a z-score of 0.0486. With `Cn1c(=O)c2c(nc(Oc3ccc4c(c3)OCO4)n2Cc2ccc(Cl)cc2)n(C)c1=O`, the z-score is -0.42. `Cc1nc(-c2ccccc2)sc1-c1n[nH]c(=S)n1C`: the z-score was determined as 0.154.

Consider `CCN1C(=C2C(=O)c3ccccc3C2=O)C=Cc2ccccc21`, for which the z-score is -0.00147. `Nc1ccc(C(=O)N/N=C/c2sc(N3CCOCC3)nc2-c2ccccc2)cc1` returned a z-score of -0.348. Compound `CCOC(=O)N1CCN(C(=O)c2cc3cc(Br)ccc3oc2=O)CC1` returned a z-score of -0.271. Regarding `O=C(N/N=C/c1c[nH]c2ccccc12)c1cc(-c2cccc3ccccc23)n[nH]1`, the z-score was -0.463. Turning to `CC(CCc1ccccc1)NC(=O)c1nnc(Cc2ccc(Cl)cc2)o1` (configuration not stated), the z-score is -1.43. Compound `Cc1cc(Nc2ccccc2)nn1C(=O)c1ccc(Br)cc1` registered a z-score of -0.495. For the compound `CCN(CC)C(=S)SCC(=O)Nc1cccc(C(F)(F)F)c1`, the z-score was -0.563. In turn, `Cc1ccc(CN2C(=O)CCC2C(=O)NCCCN2CCC(C)CC2)cc1` (configuration not stated) registered a z-score of 0.511. For `COc1ccc(C(=O)Nc2ccc(Cl)c(Cl)c2)c(OC)n1`, the z-score is -0.192.
